Assay results from the supplement of paper PMC4604168 (melanoma cell lines).
This is one part of the list. Single values are uncertain, as repeats are few or missing.

Tests used:
Test in all cases: cell count relative to DMSO control; melanoma cells; higher = more viable cells
Settings in all cases: library dose: low library concentration; 72 h
COLO792 = test system: COLO792
COLO800 = test system: COLO800
COLO829 = test system: COLO829
G361 = test system: G361
IPC-298 = test system: IPC-298
IST-MEL1 = test system: IST-MEL1
LB2518-MEL = test system: LB2518-MEL
LOXIMVI = test system: LOXIMVI
MEL-HO = test system: MEL-HO
MZ2-MEL = test system: MZ2-MEL
MeWo = test system: MeWo
RPMI7951 = test system: RPMI7951
RVH-421 = test system: RVH-421
SkMel28 = test system: SkMel28
SkMel2 = test system: SkMel2
SkMel30 = test system: SkMel30
SkMel5 = test system: SkMel5
UACC257 = test system: UACC257
UACC62 = test system: UACC62
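Further: cell number obtained by counting DAPI-stained nuclei in high-throughput microscope images with image analysis software, screen run in 1,536-well plates.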

| Compound | cell count (COLO792) [%] | cell count (COLO800) [%] | cell count (COLO829) [%] | cell count (G361) [%] | cell count (IPC-298) [%] | cell count (IST-MEL1) [%] | cell count (LB2518-MEL) [%] | cell count (LOXIMVI) [%] | cell count (MEL-HO) [%] | cell count (MZ2-MEL) [%] | cell count (MeWo) [%] | cell count (RPMI7951) [%] | cell count (RVH-421) [%] | cell count (SkMel28) [%] | cell count (SkMel2) [%] | cell count (SkMel30) [%] | cell count (SkMel5) [%] | cell count (UACC257) [%] | cell count (UACC62) [%] |
| --- | --- | --- | --- | --- | --- | --- | --- | --- | --- | --- | --- | --- | --- | --- | --- | --- | --- | --- | --- |
| Cn1cc(C2=C(c3cn(C4CCN(Cc5ccccn5)CC4)c4ccccc34)C(=O)NC2=O)c2ccccc21 [Enzastaurin] + O=C(Nc1cccc(Cl)c1)Nc1ncc(CCNc2ncnc3ccsc23)s1 [SNS314] (first compound 0.8 µM, partner dose 0.0008 µM) | 122 | 50.1 | 115 | 87.6 | 104 | 95.5 | 94.1 | 136 | 94.7 | 105 | 94.5 | 85.8 | 79.3 | 106 | 101 | 113 | 102 | 83.6 | 128 |
| N.N.[Cl][Pt][Cl] [cisplatin] + CN(NC(=O)CC(=O)NN(C)C(=S)c1ccccc1)C(=S)c1ccccc1 [STA4783] (first compound 1.6 µM, partner dose 0.006 µM) | 85.7 | 90.7 | 88.1 | 104 | 105 | 98.3 | 91.9 | 101 | 103 | 104 | 107 | 108 | 91.5 | 96 | 104 | 98.5 | 99.5 | 102 | 87.7 |
| Cn1cc(C2=C(c3cn(C4CCN(Cc5ccccn5)CC4)c4ccccc34)C(=O)NC2=O)c2ccccc21 [Enzastaurin] + C[C@@H]1CCN(C(=O)CC#N)C[C@@H]1N(C)c1ncnc2[nH]ccc12 [CP690550] (first compound 0.8 µM, partner dose 1 µM) | 93.3 | 103 | 132 | 121 | 108 | 106 | 92.5 | 73.3 | 108 | 103 | 116 | 126 | 78.8 | 99.4 | 97.5 | 113 | 97.9 | 88 | 99.7 |
| C[C@]12O[C@H](C[C@]1(O)CO)n1c3ccccc3c3c4c(c5c6ccccc6n2c5c31)CNC4=O [Lestaurtinib] + Cn1cc(/C=C2\C(=O)Nc3cccnc32)c2ccccc21 [GW441756] (first compound 0.004 µM, partner dose 0.4 µM) | 99.1 | 112 | 112 | 96.5 | 96.5 | 90 | 102 | 106 | 95.5 | 100 | 99.8 | 99.4 | 104 | 93.8 | – | 86.7 | 96.3 | 90.3 | 101 |
| C[As](C)SC[C@H](NC(=O)CC[C@H](N)C(=O)O)C(=O)NCC(=O)O [Darinaparsin] + OCCn1cc(-c2cnc3nnn(Cc4ccc5ncccc5c4)c3n2)cn1 [PF04217903] (first compound 0.4 µM, partner dose 1 µM) | 99.2 | 99.6 | 107 | 108 | 101 | 101 | 93.6 | 111 | 106 | 105 | 91.7 | 104 | 78.6 | 80.9 | 102 | 129 | 97 | 81.8 | 79.7 |
| Cn1cc(C2=C(c3cn(C4CCN(Cc5ccccn5)CC4)c4ccccc34)C(=O)NC2=O)c2ccccc21 [Enzastaurin] + C=CCn1c(=O)c2cnc(Nc3ccc(N4CCN(C)CC4)cc3)nc2n1-c1cccc(C(C)(C)O)n1 [MK1775] (first compound 0.8 µM, partner dose 0.02 µM) | 91.8 | 115 | 118 | 92.8 | 115 | 101 | 97.1 | 84.1 | 102 | 106 | 107 | 98.2 | 69.4 | 96.4 | 96.7 | 94.6 | 112 | 91.3 | 88.6 |
| N.N.[Cl][Pt][Cl] [cisplatin] + OCCn1cc(-c2cnc3nnn(Cc4ccc5ncccc5c4)c3n2)cn1 [PF04217903] (first compound 1.6 µM, partner dose 1 µM) | 96.3 | 131 | 83.7 | 103 | 98.5 | 91.7 | 95 | 94.5 | 97.6 | 101 | 94.2 | 97.3 | 86.4 | 99.6 | 108 | 112 | 97 | 95.2 | 98.6 |
| N.N.[Cl][Pt][Cl] [cisplatin] + NC(=O)Nc1cc(-c2cccc(F)c2)sc1C(=O)N[C@H]1CCCNC1 [AZD7762] (first compound 1.6 µM, partner dose 0.02 µM) | 99.6 | 67 | 99 | 102 | 99.9 | 97.6 | 126 | 113 | 93.6 | 108 | 99.8 | 94.3 | 115 | 104 | 111 | 110 | 111 | 120 | 85.5 |
| Cn1cc(C2=C(c3cn(C4CCN(Cc5ccccn5)CC4)c4ccccc34)C(=O)NC2=O)c2ccccc21 [Enzastaurin] + COc1ccc2c(c1)CCC1C2CCC2(C)C(NCCCCCCN3C(=O)C=CC3=O)CCC12 [U73122] (first compound 0.8 µM, partner dose 0.4 µM) | 93.8 | 124 | 102 | 96.3 | 99.7 | 104 | 83.9 | 72.7 | 95 | 92.8 | 104 | 104 | 152 | 86.6 | 106 | 92.4 | 94.5 | 70.7 | 89 |
| C[As](C)SC[C@H](NC(=O)CC[C@H](N)C(=O)O)C(=O)NCC(=O)O [Darinaparsin] + C=CCn1c(=O)c2cnc(Nc3ccc(N4CCN(C)CC4)cc3)nc2n1-c1cccc(C(C)(C)O)n1 [MK1775] (first compound 0.4 µM, partner dose 0.02 µM) | 98 | 90.8 | 96.7 | 97.1 | 96.2 | 96.3 | 85 | 120 | 99.9 | 104 | 91.5 | 97.9 | 86.7 | 93 | 88.1 | 74 | 65.9 | 62.9 | 72.7 |
| Cn1cc(C2=C(c3cn(C4CCN(Cc5ccccn5)CC4)c4ccccc34)C(=O)NC2=O)c2ccccc21 [Enzastaurin] + COc1cc2ncnc(Nc3ccc(Oc4ccccc4)cc3)c2cc1OC [SrcI1] (first compound 0.8 µM, partner dose 2 µM) | 101 | 95.3 | 130 | 94.3 | 102 | 101 | 124 | 112 | 86.4 | 91.9 | 113 | 111 | 108 | 86.3 | 116 | 110 | 110 | 138 | 110 |
| N.N.[Cl][Pt][Cl] [cisplatin] + C[C@@H]1CCN(C(=O)CC#N)C[C@@H]1N(C)c1ncnc2[nH]ccc12 [CP690550] (first compound 1.6 µM, partner dose 1 µM) | 98.8 | 130 | 90.2 | 100 | 101 | 97.4 | 89.3 | 88 | 104 | 101 | 91.9 | 111 | 92.7 | 90.7 | 92.6 | 104 | 84.3 | 98.8 | 86 |
| Cn1cc(C2=C(c3cn(C4CCN(Cc5ccccn5)CC4)c4ccccc34)C(=O)NC2=O)c2ccccc21 [Enzastaurin] + C/C(O)=C(\C#N)C(=O)Nc1cc(Br)ccc1Br [LFM-A13] (first compound 0.8 µM, partner dose 2 µM) | 85.9 | 91.8 | 125 | 121 | 96.2 | 108 | 92.6 | 63 | 102 | 92.5 | 109 | 86.3 | 69 | 84.8 | 105 | 104 | 88.8 | 96.6 | 88.6 |
| N.N.[Cl][Pt][Cl] [cisplatin] + CCCCCCCCCCCC1=C(O)C(=O)C=C(O)C1=O [Embelin] (first compound 1.6 µM, partner dose 1.2 µM) | 100 | 102 | 101 | 95.9 | 106 | 102 | 97.2 | 75 | 100 | 99.3 | 111 | 99.5 | 95.6 | 92.1 | 107 | 119 | 118 | 113 | 137 |
| C[C@]12O[C@H](C[C@]1(O)CO)n1c3ccccc3c3c4c(c5c6ccccc6n2c5c31)CNC4=O [Lestaurtinib] + CC1(C)NC(=O)N(c2ccc([N+](=O)[O-])c(C(F)(F)F)c2)C1=O [nilutamide] (first compound 0.004 µM, partner dose 1 µM) | 91.5 | 94.3 | 122 | 95 | 94.8 | 108 | 88.6 | 93.7 | 91.7 | 108 | 91.2 | 109 | 100 | 115 | – | 85.2 | 118 | 99.1 | 88.1 |
| C[C@]12O[C@H](C[C@]1(O)CO)n1c3ccccc3c3c4c(c5c6ccccc6n2c5c31)CNC4=O [Lestaurtinib] + CC(C)(C)c1cnc(CSc2cnc(NC(=O)C3CCNCC3)s2)o1 [SNS-032] (first compound 0.004 µM, partner dose 0.01 µM) | 82.8 | 45.1 | 89.2 | 79.2 | 97.2 | 102 | 87.4 | 92 | 92 | 96.5 | 100 | 89.8 | 117 | 92.8 | – | 114 | 98.7 | 89.8 | 112 |
| N.N.[Cl][Pt][Cl] [cisplatin] + O=c1cc(-c2cccc3c2Sc2ccccc2S3)oc(N2CCOCC2)c1 [KU55933] (first compound 1.6 µM, partner dose 1 µM) | 89.5 | 105 | 113 | 96.9 | 106 | 103 | 96.9 | 102 | 97.4 | 107 | 101 | 116 | 90.2 | 86.5 | 99.7 | 108 | 98.8 | 113 | 105 |
